Experimental findings from PubChem BioAssay AID463173 (ICCB-Longwood Screening Facility, Harvard Medical School, 2010) are described below.

About 4,300 (8.3%) of roughly 52,000 compounds were called active. Cut-off read from the data, not from the text of the source: active = survival mostly below about 52% (no sharp cut-off); inactive = mostly above about 56%. Some of the results follow.

This assay has as its system DeltatarO mutant. Briefly: S. aureus survival, RN4220 and DeltatarO strains – OD600, teichoic acid synthesis inhibitors, primary screen (AID 463173). The settings on record: S. aureus RN4220 wild type/DeltatarO growth, OD600, 18 h, stronger effect = lower value, screened at 18.75 µg/mL (by protocol).
Take `CCn1c(=O)cc(OCC(=O)N2CCN(c3cccc(C)c3C)CC2)c2ccccc21`: the survival was inactive: 123%.
For the compound `Cc1cccc(NC(=O)CN2C(=O)C(c3ccc(F)cc3)=NC23CCCCCC3)c1`, the survival was inactive: 87%.
For `COc1cccc(CNC(=O)CN2C(=O)COc3ccc(S(=O)(=O)N4CCOCC4)cc32)c1` the value was inactive: 94%; for `COc1ccc(NC(=O)Cn2c(=O)c3ccccc3n3nncc23)c(OC)c1`, inactive: 96%; for `CC(=O)c1c(C)oc2c1cc(NS(=O)(=O)c1ccc(C(C)(C)C)cc1)c1ccccc12`, inactive: 64%.
In the case of `Cc1cc(C)c(NC(=O)Cn2c(=O)n(Cc3ccc(C(=O)NCc4ccc5c(c4)OCO5)cc3)c(=O)c3ccccc32)c(C)c1`, the survival was inactive: 82%.
As to `Cc1ccc(CNC(=O)C(C)n2nc(C)c3sc4ccccc4c3c2=O)cc1` (stereo not drawn), the survival was inactive: 99%.
On to `COC(=O)c1ccc(NC(=O)CN(C)S(=O)(=O)c2ccc(Br)s2)cc1`, for which the survival was inactive: 73%.
In the case of `COc1cccc(-n2c(SCc3ccc(F)cc3)nc3c([nH]c4ccccc43)c2=O)c1` it was inactive: 103%; in that of `Cc1ccc2nc(-c3ccc(Cl)s3)c(Nc3ccc4c(c3)OCCO4)n2c1`, inactive: 91%.
For the compound `Cc1nn2c(C)c(C(=O)NCc3ccc(OC(C)C)cc3)cnc2c1-c1ccc(F)cc1`, the survival is inactive: 87%.
Take `COc1ccc(Cn2ccnc2SCC(=O)Nc2nnc(C)s2)cc1`: the survival was inactive: 115%.
Regarding `O=C(Oc1ccccc1)c1ccc2nccnc2c1`, the survival is inactive: 83%.
With `O=C(CNS(=O)(=O)c1ccc(Cl)cc1)NN=C1CCCCC1`, the survival is inactive: 92%.
On to `CCOc1ccccc1NC(=O)c1ccc(F)c(S(=O)(=O)N2CCN(c3ccc(F)cc3)CC2)c1`, for which the survival is inactive: 76%.
On to `CCOc1ccc(C(=O)NCC(c2cccs2)S(=O)(=O)c2ccccc2)cc1` (stereo not drawn), for which the survival was inactive: 97%.
Consider `CCOc1ccc(C(=O)NCCSc2c(C)[nH]c3ccccc23)cc1OCC`, for which the survival was inactive: 56%.
`CCOc1ccc(NC(=O)c2cc(C)nc3c2c(C)nn3-c2ccc(C)cc2)cc1`: the survival is inactive: 124%.
In the case of `Cc1cccc(C(=O)N2CCc3cc(CNC(=O)CSc4ccccc4)ccc32)c1` it was inactive: 77%; in that of `COc1cccc(C(=O)Oc2c(Sc3ccc(C)cc3)c(C)nn2C(C)(C)C)c1OC`, active: 21%.
For the compound `COC(=O)c1ccccc1NC(=O)CN1C(=O)COc2ccc(Cl)cc21`, the survival is active: 38%.
For `COc1ccc(NC(=O)c2cc(S(=O)(=O)N3CCCC3)ccc2OC)cc1` the value was inactive: 91%; for `CC(C)Cc1nn2c(=O)cc(COC(=O)c3ccc(NC(=O)C4CCCCC4)cc3)nc2s1`, inactive: 73%; for `Clc1ncnc2c1oc1ccccc12`, inactive: 107%.
As to `CCOc1cccc(CC(=O)N2CCc3c([nH]c4ccc(OC)cc34)C2c2ccc(F)cc2)c1OCC` (stereo not drawn), the survival was inactive: 79%.
Consider `O=C(COc1ccc(Cl)cc1)Nc1nnc(S(=O)(=O)N2CCCCCC2)s1`, for which the survival is active: 55%.
`Cc1ccc(S(=O)(=O)n2nc(C)c(S(=O)(=O)N3CCCCCC3)c2C)cc1C`: the survival is inactive: 80%.
For `Cc1ccn2c(Nc3ccc4c(c3)OCCO4)c(-c3ccccc3O)nc2c1` the value was inactive: 70%; for `CCCCOc1ccc(C2C(C(=O)Nc3ccccc3OC)=C(C)Nc3nnnn32)cc1OC` (stereo not drawn), inactive: 85%.
As to `CC(=O)N1CCCc2cc(S(=O)(=O)N3CCC(C(=O)Nc4ccc(C)cc4Cl)CC3)ccc21`, the survival was inactive: 68%.
In the case of `CCN(CC)CCCNC(=O)CCC(=O)NNc1nc2ccccc2c2nc(C)nn12`, the survival is inactive: 94%.
In the case of `COc1ccccc1N1CCN(C(CNC(=O)C(=O)NCc2cccnc2)c2cccnc2)CC1` (stereo not drawn) it was inactive: 71%.
`CCOC(=O)c1c(NC(=O)c2cc(-c3ccc(OC)c(OC)c3)on2)sc(C)c1C`: the survival is active: 42%.
Regarding `O=C1c2ccccc2-c2n[nH]c(=S)nc21`, the survival is inactive: 64%.
In the case of `COc1ccccc1CNC(=O)c1cc2c(s1)-c1ccc(Cl)cc1SC2` it was inactive: 79%; in that of `Cc1ccccc1CNC(=O)CSc1nnc(C)c2c(C)n(-c3ccccc3)nc12`, inactive: 117%.
For the compound `CCc1cc2c(=O)[nH]cnc2s1`, the survival was inactive: 99%.
As to `CC(C)c1ccc(NS(=O)(=O)c2cc(Br)cc3c2N(C(=O)C2CC2)CC3)cc1`, the survival was inactive: 56%.
With `Cn1cnc(S(=O)(=O)N2CCCC(C(=O)NCc3ccc(F)cc3)C2)c1` (stereo not drawn), the survival is inactive: 55%.
Take `COc1ccc(OC)c(-c2noc(N3CCN(c4ccc(Cl)cc4)CC3)n2)c1`: the survival was inactive: 88%.
As to `Cc1cc(C)cc(NS(=O)(=O)c2ccc3[nH]cc(C(=O)NCCc4ccccc4)c(=O)c3c2)c1`, the survival was inactive: 72%.
Turning to `CCOc1ccc(NC(=O)C(=O)NCCc2csc(-c3ccc(C(F)(F)F)cc3)n2)cc1`, the survival was inactive: 94%.
For `Cc1ccc(C(=O)N2CCn3c4c(c5cc(C)ccc53)CCCC42)cc1` (stereo not drawn) the value was active: -1%; for `COc1ccc(CCNC(=O)c2ccc3c(c2)N(Cc2ccccc2)CCS3)cc1OC`, inactive: 76%.
Turning to `CCn1c(-c2ccccc2)cnc1SCC(=O)c1sc2c(c1C#N)CCCC2`, the survival is inactive: 87%.
In the case of `Cc1cc(NC(=O)Nc2nnc(N3CCCCCC3)s2)ccc1Br` it was inactive: 83%.
With `Cc1ccc(-c2nn(-c3ccccc3)c3c2cnc2ccccc23)cc1C`, the survival is inactive: 68%.
With `Cc1ccc(CNC(=O)c2ccc(Nc3nc4ccccc4n4nnnc34)cc2)cc1`, the survival is inactive: 124%.
Turning to `Cc1ccc(NC(=O)c2oc3c(c2C)-c2[nH]ncc2CC3)c(Cl)c1`, the survival is inactive: 64%.
For the compound `COc1cc(NC(=O)C2CCCCC2)c(OC)cc1NC(=O)CCC(=O)NCc1ccco1`, the survival is inactive: 98%.
For `CCc1ccc(NC(=O)COC(=O)CCCC2=NS(=O)(=O)c3ccccc3N2)cc1` the value was inactive: 109%.
For `O=C1CSC2(C(=O)N(Cc3ccccc3)c3ccccc32)N1c1cccc(F)c1` (stereo not drawn) the value was inactive: 77%; for `COc1cc(-c2nc(-c3ccc4c(c3)[nH]c(=O)n4C)no2)cc(OC)c1OC`, inactive: 94%.
Take `CCOc1ccccc1NC(=O)C1CCN(S(=O)(=O)c2ccc3[nH]c(=O)ccc3c2)CC1`: the survival was inactive: 63%.
As to `COc1ccc(-n2c(/C=C/c3cccc(C(F)(F)F)c3)nc3ccccc3c2=O)cc1Cl`, the survival was inactive: 90%.
For `CCOc1ccc(CCNC(=O)C2CCN(Cc3nc(-c4ccc(OC)c(OC)c4)oc3C)CC2)cc1OCC`, the survival is inactive: 89%.
As to `Cc1ccc(S(=O)(=O)N2CCN(Cc3cc(Br)ccc3O)CC2)cc1`, the survival was inactive: 59%.
As to `Cc1ccn2c(=O)cc(COc3ccc(NC(=O)COc4ccccc4)cc3)nc2c1`, the survival is inactive: 96%.
In the case of `Cn1cc(S(=O)(=O)N2CCCCCC2)cc1C(=O)N1CCN(c2cccc(C(F)(F)F)c2)CC1`, the survival is inactive: 99%.
Consider `COc1ccc(C2SCCN2S(=O)(=O)c2ccc(NC(C)=O)cc2)cc1OC` (stereo not drawn), for which the survival was inactive: 84%.
Turning to `CCC(=O)N1CCc2cc(Br)cc(S(=O)(=O)N3CCCC(C(=O)NCc4ccc(F)cc4)C3)c21` (stereo not drawn), the survival was inactive: 95%.
In the case of `Cc1cccc(-c2noc(-c3ccc(NCc4ccco4)c([N+](=O)[O-])c3)n2)c1`, the survival was inactive: 59%.
In the case of `O=C(c1ccco1)N1CCN(c2nc3c(F)cc(F)cc3s2)CC1` it was inactive: 109%; in that of `CCC(C)(C)C(=O)Nc1ccc(Cl)cc1`, inactive: 93%; in that of `CCC(=O)N1c2ccccc2CC1C(=O)NCc1cccc(OC)c1OC` (stereo not drawn), inactive: 84%.
Regarding `Cc1ccc2nc(COc3ccccc3NC(=O)c3ccccc3C)cc(=O)n2c1`, the survival was inactive: 81%.
Turning to `COc1ccc(-c2nnc(SCC(=O)Nc3cc(OC)ccc3OC)nc2-c2ccc(OC)cc2)cc1`, the survival is inactive: 80%.
Turning to `CCOC(=O)CS(=O)(=O)c1nc2c(c(C(F)(F)F)n1)CCc1ccccc1-2`, the survival was inactive: 98%.
For `CCc1cccc(C)c1NC(=O)Cn1c(=O)n(-c2ccc(C)cc2)c(=O)c2c1cnn2C` the value was inactive: 74%; for `COc1ccc(CCn2c(=O)c3cccnc3n(CC(=O)Nc3c(C)cccc3C)c2=O)cc1OC`, inactive: 90%; for `O=S(=O)(c1ccc(Cl)cc1)c1nc(-c2cccc(Br)c2)oc1NCc1ccccc1`, inactive: 81%.
Consider `COc1ccc(OC)c(NC(=O)c2ccc3c(SCC(=O)O)c4c(nc3c2)CCCC4)c1`, for which the survival was inactive: 64%.
For the compound `Cc1cccc(CCNC(=O)c2ccc3c(c2)nc2n3CCC(C)C2)c1` (stereo not drawn), the survival is inactive: 92%.
`Cc1ccccc1CNC(=O)c1nn(-c2ccccc2F)nc1CO`: the survival is inactive: 85%.
With `COc1ccc(C(=O)Nc2ccc(-c3nnc4n3CCCCC4)cc2)cc1`, the survival was active: 0%.
Consider `COc1cccc2c1Oc1ncccc1N(C(=O)CCC(=O)NCCC(C)C)C2`, for which the survival is inactive: 80%.
As to `O=c1c2sccc2n(Cc2cc(=O)n3ccccc3n2)c(=O)n1-c1cc(F)ccc1F`, the survival was inactive: 69%.
As for `COc1cc(OC)cc(C(=O)Nc2cc(-c3nc4ccccc4[nH]3)ccc2C)c1`, the survival was active: 44%.
Consider `O=C(/C=C/c1ccco1)Nc1ccc(F)cc1`, for which the survival was inactive: 94%.
For the compound `COC(=O)c1c(SC)nc2ccccc2c1OCc1ccc(Br)cc1`, the survival is inactive: 59%.
On to `CCOC(=O)C1CCCN(c2nc3c(S(=O)(=O)c4ccc(Br)cc4)nnn3c3ccsc23)C1` (stereo not drawn), for which the survival was inactive: 94%.
Regarding `CCOc1ccc2nc(N3CCN(C(=O)c4ccc(S(=O)(=O)CC)cc4)CC3)sc2c1`, the survival was inactive: 95%.
In the case of `COc1ccc(-n2cc(C(=O)N(CCN(C)C)Cc3ccccc3)c3ccccc3c2=O)cc1`, the survival was inactive: 75%.
On to `Cc1ccc(/C=C/C(=O)Nc2nc(-c3cccs3)ns2)cc1`, for which the survival was inactive: 77%.
Consider `COc1cc(C(=O)N(Cc2ccc(F)cc2)Cc2ccco2)cc(OC)c1OC`, for which the survival was inactive: 103%.
Take `COc1ccc(Cn2c(=O)[nH]c3cc(C(=O)NCCC(C)C)ccc3c2=O)cc1`: the survival is inactive: 73%.
As for `COc1ccc(CNC(=O)CS(=O)Cc2nc(-c3ccc(OC)c(OC)c3)oc2C)cc1` (stereo not drawn), the survival was inactive: 86%.
As for `CCn1c(C)c(C)c2cc(C(=O)NCCCN3CCCCC3C)ccc21` (stereo not drawn), the survival was inactive: 91%.
